Laboratory results published in paper PMC4336329 (PLoS ONE, 2015).
Screen size: about 310,000 compounds; about 2,200 (0.71%) showed an effect of 50% or more. The effect is printed as a negative number. The list shows a part of the results.

Target: human ether-à-go-go-related gene (hERG) potassium channel (human, UniProt Q12809)
Assay: primary screen, population patch clamp on CHO cells stably expressing hERG

human ether-à-go-go-related gene (hERG) potassium channel, sequence (Q12809 whole entry, looked up): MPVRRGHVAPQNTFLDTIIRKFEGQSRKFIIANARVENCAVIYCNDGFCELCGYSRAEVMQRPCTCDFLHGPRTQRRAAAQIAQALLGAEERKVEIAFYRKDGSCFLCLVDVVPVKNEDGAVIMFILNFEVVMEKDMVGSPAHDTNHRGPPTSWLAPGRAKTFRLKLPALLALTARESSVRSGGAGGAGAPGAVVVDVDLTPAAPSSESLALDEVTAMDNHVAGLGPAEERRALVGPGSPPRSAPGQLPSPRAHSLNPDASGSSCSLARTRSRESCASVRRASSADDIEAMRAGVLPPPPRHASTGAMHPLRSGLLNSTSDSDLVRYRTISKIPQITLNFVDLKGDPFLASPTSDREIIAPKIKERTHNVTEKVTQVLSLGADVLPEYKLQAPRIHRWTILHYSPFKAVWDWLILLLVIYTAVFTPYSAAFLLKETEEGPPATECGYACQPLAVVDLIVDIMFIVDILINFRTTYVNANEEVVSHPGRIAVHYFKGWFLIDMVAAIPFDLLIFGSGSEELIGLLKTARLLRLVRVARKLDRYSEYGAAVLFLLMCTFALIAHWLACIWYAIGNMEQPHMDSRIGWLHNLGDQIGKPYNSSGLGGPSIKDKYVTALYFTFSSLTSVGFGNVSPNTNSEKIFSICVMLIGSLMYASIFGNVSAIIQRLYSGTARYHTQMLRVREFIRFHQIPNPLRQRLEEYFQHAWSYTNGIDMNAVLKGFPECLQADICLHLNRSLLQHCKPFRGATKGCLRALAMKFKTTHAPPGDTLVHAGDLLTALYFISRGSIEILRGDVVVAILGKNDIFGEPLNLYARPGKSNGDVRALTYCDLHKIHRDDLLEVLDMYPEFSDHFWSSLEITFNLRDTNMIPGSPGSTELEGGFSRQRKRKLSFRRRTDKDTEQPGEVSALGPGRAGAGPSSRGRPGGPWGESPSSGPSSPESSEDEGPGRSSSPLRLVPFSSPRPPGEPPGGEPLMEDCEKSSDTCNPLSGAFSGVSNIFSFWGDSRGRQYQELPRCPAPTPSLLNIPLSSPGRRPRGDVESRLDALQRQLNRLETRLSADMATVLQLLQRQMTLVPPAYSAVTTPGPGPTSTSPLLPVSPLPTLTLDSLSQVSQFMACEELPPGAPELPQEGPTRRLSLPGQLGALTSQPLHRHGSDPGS

| Compound | hERG current change (%, negative = inhibition) at 1uM [%] |
| --- | --- |
| CC(C)CNc1nc(=S)nc(N(C)C)[nH]1 | 7.75 |
| COc1cc2[nH]cc(C(=O)NCCc3ccccc3)c(=O)c2cc1OC | -12.5 |
| CCOc1ccc(NC(=O)CN(C)C(=O)c2c(C)nn(-c3ccccc3)c2Cl)cc1OCC | 6.74 |
| O=c1c2ccccc2ncn1-c1ccccc1F | 11.5 |
| CCOC(=O)c1cccc(NC(=O)CSc2nc(N)cc(N)n2)c1 | 7.84 |
| CC(C)c1nnc(NC(=O)CCS(=O)(=O)c2ccccc2)s1 | 20.1 |
| CC(C)Cc1nc(SCC(=O)Nc2ccc(S(N)(=O)=O)cc2)n[nH]1 | -2.24 |
| COc1cccc(CN2CCNC(=O)C2CC(=O)N(C)C2CCOCC2)c1 (stereo not shown) | 9.15 |
| Cc1ncc(CO)c(/C=N/Nc2cccc(Cl)n2)c1O.Cl | 17.1 |
| COc1ccc(/C=C/C(=O)NC(=S)Nc2ccc(Br)cn2)cc1 | 13.1 |
| CCOC(=O)NC(NC(=S)Nc1ccc(OC)cc1)C(Cl)(Cl)Cl (stereo not shown) | 4.33 |
| Cc1cc(C)c(S(=O)(=O)c2ccc(F)cc2C)c(=O)[nH]1 | 17.2 |
| COc1ccc(OC)c(C(=O)CSc2nc3cccnc3n2C)c1 | 9.65 |
| COc1ccc2[nH]c(O)c(NC(C)=O)c2c1 | 2.32 |
| O=c1ccc(Cc2ccc(Cl)cc2)n[nH]1 | 12.6 |
| COc1cc(NC(=O)c2ccccc2)ccc1NC(=O)Cc1ccccc1 | 13.4 |
| CCOC(=O)C1=NOC2C3CC(C12)C1C(=O)N(CCc2ccc(OC)c(OC)c2)C(=O)C31 (stereo not shown) | 11.9 |
| CC(NC(=O)c1ccncc1)C(C)(C)C (stereo not shown) | 3.98 |
| CCc1cc(C(=O)Nc2ccc(C)cc2Br)cs1 | 14.1 |
| Cc1cc2nc(C3CCCN(C(=S)Nc4ccccc4)C3)[nH]c2cc1C (stereo not shown) | 16.3 |
| O=C(c1cccc(N2CCCC2=O)c1)N1CCOCC1 | 8.37 |
| O=C(C1CCCO1)N1CCN(C(=S)Nc2ccccc2)CC1 (stereo not shown) | -17.7 |
| O=C(Nc1ccccc1)NC1(C(=O)NCc2ccc3c(c2)OCO3)CCCCC1 | 20.8 |

| Compound | hERG current change (%, negative = inhibition) at 1uM [%] |
| --- | --- |
| COc1ccc(CC(=O)N(Cc2ccccc2)c2ccccc2)cc1S(=O)(=O)N1CCOCC1 | 17 |
| Cc1oc2ccc(OC(=O)c3cccs3)cc2c1C(=O)OC(C)C | 6.01 |
| Cc1ccc(C)c(NC(=S)NC(NC(=O)Cc2cccc3ccccc23)C(Cl)(Cl)Cl)c1 (stereo not shown) | 4.51 |
| CN1CCN(C2Cc3ccccc3Sc3cc(C(F)(F)F)ccc32)CC1.O=C(O)/C=C\C(=O)O (stereo not shown) | -2.36 |
| CCOC(=O)C1(Cc2cccc(F)c2)CCN(CC2CC2)CC1 | -2.54 |
| Cc1nc2ccccc2c(=O)n1-c1ccc([N+](=O)[O-])cc1 | 11.2 |
| Cc1c(/C=N/N2C(=O)C3C4C=CC(C4)C3C2=O)c2ccccc2n1C (stereo not shown) | 9.84 |
| CCOC(=O)C1CCCN(S(=O)(=O)c2cc3c4c(c2)CCN4C(=O)CC3)C1 (stereo not shown) | -4.3 |
| Cc1ccc(OC(=S)Nc2ccccc2)c(C)c1 | 5.51 |
| Cc1ccc(S(=O)(=O)N2CCN(C(=O)c3cccs3)CC2)cc1 | 12.3 |
| Cn1ncc(-c2ccno2)c1C(=O)O | 21.6 |
| COc1ccc(C(=O)N(CN2CCCC2=O)c2ccccc2OC)cc1OC | 0.603 |
| Fc1cccc(Cl)c1Cn1nnc(-c2ccc3c(c2)OCO3)n1 | 1.27 |
| Cc1cccc(NC(=O)Nc2c(C)n(C)n(-c3ccccc3)c2=O)c1 | 9.37 |
| CCOc1ccc(C2CC(c3ccc(F)cc3)Nc3nc(N)nn32)cc1 (stereo not shown) | 1.04 |
| Cc1cc(NC(=O)c2ccco2)ncc1NC(=O)CCc1ccccc1 | 0.856 |
| CCOc1ccc(OCCOC(=O)CN2C(=O)NC3(CCCC3)C2=O)cc1 | 11.8 |
| NC(=O)c1cccc2c1C(=O)N(C1CCCCC1)C2 | 15.1 |
| COCC(C)NC(=O)CSc1nc2ccccc2n1CCc1ccccc1 (stereo not shown) | 15.1 |
| O=S(=O)(NC1CCC(NS(=O)(=O)c2c(F)cccc2F)CC1)c1ccc2c(c1)OCCO2 (stereo not shown) | 10.7 |
| Cc1nc(N/N=C/c2ccc(O)cc2)c2cnn(-c3ccccc3)c2n1 | 8.16 |
| Cc1ccc(C2=NS(=O)(=O)N(C)C(C(=O)N(C)C3CCCCC3)=C2)cc1 | -27.5 |
| COc1ccccc1OCCNC(=O)c1ccc(C(C)(C)C)cc1 | 3.25 |

| Compound | hERG current change (%, negative = inhibition) at 1uM [%] |
| --- | --- |
| O=C(Cc1ccccc1)Nc1nc(-c2cccs2)cs1 | 0.286 |
| Cc1ccc(N(CC(=O)N/N=C/c2cc(C)n(-c3ccccc3C)c2C)S(C)(=O)=O)cc1 | 1.68 |
| OC1C=CSc2nc3ccccc3n21 (stereo not shown) | 7.81 |
| O=C(Nc1ccc(Cc2ccncc2)cc1)c1ccc(S(=O)(=O)N2CCOCC2)cc1 | 7.8 |
| COc1ccc(C2=NOC(C(=O)Nc3cccc(O)c3)C2)cc1 (stereo not shown) | 7.2 |
| CCC(=O)C1=C(N2CCCC2)CC(C)(C)CC1=O | 10.8 |
| CCOc1ccccc1NC(=O)NCCCCc1ccccc1 | 7.23 |
| C/C(=N\Nc1nncc2ccccc12)c1cccc(OC(F)F)c1 | 15 |
| CCC(=O)Nc1ccc(-c2nnc(SCC(=O)Nc3nccs3)n2C)cc1 | 4.84 |
| COc1ccc(OC)c(S(=O)(=O)Nc2cccc(-c3ccc4nncn4n3)c2)c1 | 11.5 |
| O=C(NNS(=O)(=O)c1ccc(F)cc1F)c1csc(-c2cccnc2)n1 | 15.6 |
| Cc1nc2ccc(NS(=O)(=O)c3ccc(F)cc3)cc2s1 | 15.1 |
| Cc1cccc(C)c1N(CC(=O)NCc1ccccc1)C(=O)c1csnn1 | 10.1 |
| CC(C)(C)NC(=S)NCc1ccco1 | 10.7 |
| Cc1cccc(-n2c(CCc3ccccc3)nnc2SCC(=O)c2ccccc2)c1 | -1.14 |
| Nc1nc(COc2ccccc2)cs1 | 5.04 |
| Cc1ccc(NC(=O)C2CCCCC2C(=O)O)cc1C (stereo not shown) | 1.63 |
| CCOc1cc(/C=C/C(=O)OCC(=O)NCCN2C(=O)CSC2=O)ccc1OCC(C)C | 9.05 |
| CCOc1cccc(-c2c(C(=O)N/N=C(\C)c3ccncc3)nnn2-c2nonc2N)c1 | -4.95 |
| CCOC(=O)c1cc(-c2ccc(OC(F)F)cc2)nc2nc(SC)[nH]c(=O)c12 | -7.54 |
| CC1CC(=O)N(CC(=O)NC2CCCCC2)c2ccccc2S1 (stereo not shown) | 9.37 |
| Cc1ccc(C)c(OCCn2c(=O)c3c(ncn3C3CCCC3)n(Cc3ccccc3)c2=O)c1 | 1.19 |
| c1ccc(-c2cc(-c3ccccc3)ncn2)cc1 | 1.75 |

| Compound | hERG current change (%, negative = inhibition) at 1uM [%] |
| --- | --- |
| CCOC(=O)c1sc(C)c2c(=O)n(Cc3ccc(Cl)cc3)cnc12 | 7.44 |
| N#CC(C#N)=C1C=C2C=C(N3CCCCC3)CCC2CC1 (stereo not shown) | 2.79 |
| COc1ccccc1CCNC(=O)C1CCN(C(=O)/C=C/c2ccccc2)CC1 | 12.7 |
| COC(=O)CCNc1ccc2c(c1)OCCO2 | 8.01 |
| CCOC(=O)CCc1c(C)c(C#N)c2nc3ccccc3n2c1-n1cnc2ccccc21 | 8.48 |
| CN1CCN(c2ccc(C(F)(F)F)cc2NC(=O)c2ccco2)CC1 | -30.8 |
| C/C(=N\NC(=O)c1ccc(Cl)cc1)c1cccnc1 | 7.47 |
| CCC(C)N(C(=O)COc1ccccc1C(=O)NCc1ccccc1)C1CCS(=O)(=O)C1 (stereo not shown) | -12.3 |
| CCOC(=O)N1CCN(C(=O)c2cc3c(ccc4ccccc43)oc2=O)CC1 | 15.4 |
| COc1ccc(OC)c(CN2CCN(C(=O)CCNC(=O)c3ccc(Br)cc3)CC2)c1 | -1.18 |
| Cc1c(O)c2ccccc2n(-c2ccccc2)c1=O | 14 |
| O=C(NNS(=O)(=O)c1ccc(Br)cc1)c1ccncc1 | 8.67 |
| O=c1c2c3nc4ccccc4nc3n(/N=C/c3ccco3)c2ncn1CCC1=CCCCC1 | 0.651 |
| Cc1ccc(S(=O)(=O)N(C)c2ccccc2C(=O)Nc2c(F)cccc2F)cc1 | 14.5 |
| O=C1c2ccccc2C(=O)c2c1cccc2N1CCN(Cc2ccccc2)CC1 | -6.21 |
| CC1(C)CC(=O)C2=C(C1)N(Cc1ccco1)C(=O)C2(O)C(F)(F)F (stereo not shown) | 10.7 |
| C/C=C1\COC(C(=O)NCCCN2CCCC2=O)(C(F)(F)F)C=C1C=C(C)C (stereo not shown) | 9.8 |
| COc1ccc(CCNC(=O)c2cc(-c3cc(C)cc(C)c3O)n[nH]2)cc1OC | -1.05 |
| CC(=O)OC1N=C(c2ccccc2)c2cc(Br)ccc2NC1=O (stereo not shown) | 4.39 |
| CC(NC(=O)CNC(=O)c1ccc2c(c1)OCO2)c1ccc(S(N)(=O)=O)cc1 (stereo not shown) | 2.65 |
| C=CCn1c(SCC(=O)NCCC2=CCCCC2)nc2ccc(Cl)cc2c1=O | 10.9 |
| COc1ccc(Oc2cc(C)c3ccccc3n2)cc1 | 12 |
